Laboratory results as given in the supplement of paper PMC10037445.
Several values for one entry are separate records, joined by “and”; a condition that tells them apart may be missing. Identical values can stand only once. The full ranking holds about 2,900 compounds; the median of “IRF Lucia reporter activity, fold change vs agonist alone” is about 0.9, and the highest 2% start at about 2.8. The list shows a part of the results.

Experiments:
RAW-Dual [1] = test: IRF Lucia reporter activity, fold change vs agonist alone; cytotoxicity flag (confluency mask): not cytotoxic; higher = enhanced IRF activity
How it was run: (§1)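 Library stock was pin-tooled at 50 nL into 384-well plates of RAW-Dual macrophages (50,000 cells/well, DMEM), followed 1 h later by a PRR agonist, and the cells were kept at 37 °C, 5% CO2. Supernatant collected after 20 hours was read for IRF by QuantiLuc luminescence and for NF-κB by QuantiBlue absorbance at 620 nm. Reporter activity is fold change over agonist-alone wells, and a well counted as cytotoxic when its IncuCyte confluency was below 70% of agonist controls in both mask sets.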

RAW-Dual [2] = test: IRF Lucia reporter activity, fold change vs agonist alone; higher = enhanced IRF activity; conditions: library stock concentration (final ~1000-fold dilution): 10 mM, agonist: MPLA (TLR4) […]
How it was run: as §1

RAW-Dual [3] = test: IRF Lucia reporter activity, fold change vs agonist alone; cytotoxicity flag (confluency mask): cytotoxic (confluency <70% of control); higher = enhanced IRF activity
How it was run: as §1

[4] = agonist: 3'3'-cGAMP (STING) 10 ug/mL
[5] = cytotoxicity flag (confluency mask): not cytotoxic
[6] = cytotoxicity flag (confluency mask): cytotoxic (confluency <70% of control)

## COc1cccc2c1C(=O)c1c(O)c3c(c(O)c1C2=O)CC(O)(C(=O)CO)CC3OC1CC(N)C(O)C(C)O1.Cl (centres undefined) (library stock concentration (final ~1000-fold dilution): 10 mM)
RAW-Dual [1]; [4]
  IRF Lucia reporter activity: 0.00943
RAW-Dual [1]; agonist: LPS (TLR4) 0.1 ug/mL
  IRF Lucia reporter activity: 0.0132

## COc1cccc2c1C(=O)c1c(O)c3c(c(O)c1C2=O)CC(O)(C(=O)CO)CC3OC1CC(N)C(O)C(C)O1.Cl (centres undefined)
RAW-Dual [2]; [5]
  IRF Lucia reporter activity: 0.0236

## O=C1CCCC(=O)C1C(=O)c1ccc(C(F)(F)F)cc1[N+](=O)[O-] (library stock concentration (final ~1000-fold dilution): 10 mM)
RAW-Dual [1]; [4]
  IRF Lucia reporter activity: 0.976 and 1.1
RAW-Dual [1]; agonist: LPS (TLR4) 0.1 ug/mL
  IRF Lucia reporter activity: 1.13 and 1.21

## O=C1CCCC(=O)C1C(=O)c1ccc(C(F)(F)F)cc1[N+](=O)[O-]
RAW-Dual [2]; [5]
  IRF Lucia reporter activity: 0.96

## OCc1ccccc1OC1OC(CO)C(O)C(O)C1O (centres undefined)
RAW-Dual [2]; [5]
  IRF Lucia reporter activity: 1.06

## OCc1ccccc1OC1OC(CO)C(O)C(O)C1O (centres undefined) (library stock concentration (final ~1000-fold dilution): 10 mM)
RAW-Dual [1]; [4]
  IRF Lucia reporter activity: 1.03
RAW-Dual [1]; agonist: LPS (TLR4) 0.1 ug/mL
  IRF Lucia reporter activity: 0.965

## O=C(Nc1cnn2ccc(N3CCCC3c3cc(F)ccc3F)nc12)N1CCC(O)C1.O=S(=O)(O)O (centres undefined) (library stock concentration (final ~1000-fold dilution): 10 mM)
RAW-Dual [1]; [4]
  IRF Lucia reporter activity: 1.27
RAW-Dual [1]; agonist: LPS (TLR4) 0.1 ug/mL
  IRF Lucia reporter activity: 1.02

## C=CC(=O)Nc1cccc(Oc2nc(Nc3ccc(N4CCN(C)CC4)cc3)nc3ccsc23)c1 (library stock concentration (final ~1000-fold dilution): 10 mM)
RAW-Dual [3]; [4]
  IRF Lucia reporter activity: 0.0156
RAW-Dual [3]; agonist: LPS (TLR4) 0.1 ug/mL
  IRF Lucia reporter activity: 0.184

## CN(C)C1C(O)=C(C(N)=O)C(=O)C2(O)C(O)=C3C(=O)c4c(O)ccc(Cl)c4C(O)C3CC12.Cl (centres undefined)
RAW-Dual [2]; [5]
  IRF Lucia reporter activity: 0.919

## CN(C)C1C(O)=C(C(N)=O)C(=O)C2(O)C(O)=C3C(=O)c4c(O)ccc(Cl)c4C(O)C3CC12.Cl (centres undefined) (library stock concentration (final ~1000-fold dilution): 10 mM)
RAW-Dual [1]; [4]
  IRF Lucia reporter activity: 0.915
RAW-Dual [1]; agonist: LPS (TLR4) 0.1 ug/mL
  IRF Lucia reporter activity: 1.4

## NC(=O)c1cccc(N)c1
RAW-Dual [2]; [5]
  IRF Lucia reporter activity: 1.05

## NC(=O)c1cccc(N)c1 (library stock concentration (final ~1000-fold dilution): 10 mM)
RAW-Dual [1]; [4]
  IRF Lucia reporter activity: 1.05
RAW-Dual [1]; agonist: LPS (TLR4) 0.1 ug/mL
  IRF Lucia reporter activity: 1.05

## Cc1ccc(-n2nc(C(C)(C)C)cc2NC(=O)Nc2ccc(OCCN3CCOCC3)c3ccccc23)cc1
RAW-Dual [2]; [5]
  IRF Lucia reporter activity: 0.572

## Cc1ccc(-n2nc(C(C)(C)C)cc2NC(=O)Nc2ccc(OCCN3CCOCC3)c3ccccc23)cc1 (library stock concentration (final ~1000-fold dilution): 10 mM)
RAW-Dual [1]; [4]
  IRF Lucia reporter activity: 1.23
RAW-Dual [1]; agonist: LPS (TLR4) 0.1 ug/mL
  IRF Lucia reporter activity: 0.463

## CC(NCc1ccc(OCc2cccc(F)c2)cc1)C(N)=O (centres undefined)
RAW-Dual [2]; [5]
  IRF Lucia reporter activity: 1.1

## CC(NCc1ccc(OCc2cccc(F)c2)cc1)C(N)=O (centres undefined) (library stock concentration (final ~1000-fold dilution): 10 mM)
RAW-Dual [1]; [4]
  IRF Lucia reporter activity: 0.896
RAW-Dual [1]; agonist: LPS (TLR4) 0.1 ug/mL
  IRF Lucia reporter activity: 1.34

## CC(CN(C)C)Oc1nc(Nc2cc3cccc(Cl)c3cn2)cnc1C#N (centres undefined) (library stock concentration (final ~1000-fold dilution): 10 mM)
RAW-Dual [1]; [4]
  IRF Lucia reporter activity: 0.797
RAW-Dual [1]; agonist: LPS (TLR4) 0.1 ug/mL
  IRF Lucia reporter activity: 0.941

## CC(=O)NC(CC(C)C)C(=O)NC(CC(C)C)C(=O)NC(C=O)CCCNC(=N)N (centres undefined)
RAW-Dual [2]; [5]
  IRF Lucia reporter activity: 1.12

## CC(=O)NC(CC(C)C)C(=O)NC(CC(C)C)C(=O)NC(C=O)CCCNC(=N)N (centres undefined) (library stock concentration (final ~1000-fold dilution): 10 mM)
RAW-Dual [1]; [4]
  IRF Lucia reporter activity: 1.13
RAW-Dual [1]; agonist: LPS (TLR4) 0.1 ug/mL
  IRF Lucia reporter activity: 0.948

## Cc1cc(OCc2nnc(SC3CCCC3)n2-c2cccnc2)ccc1-c1ccc(S(C)(=O)=O)cc1
RAW-Dual [2]; [6]
  IRF Lucia reporter activity: 0.905

## Cc1cc(OCc2nnc(SC3CCCC3)n2-c2cccnc2)ccc1-c1ccc(S(C)(=O)=O)cc1 (library stock concentration (final ~1000-fold dilution): 10 mM)
RAW-Dual [3]; [4]
  IRF Lucia reporter activity: 0.0369
RAW-Dual [3]; agonist: LPS (TLR4) 0.1 ug/mL
  IRF Lucia reporter activity: 0.697

## CNC(=O)c1ccc(C)c(-n2c(C)cc(OCc3ccc(F)cc3F)c(Br)c2=O)c1
RAW-Dual [2]; [5]
  IRF Lucia reporter activity: 1.4

## CNC(=O)c1ccc(C)c(-n2c(C)cc(OCc3ccc(F)cc3F)c(Br)c2=O)c1 (library stock concentration (final ~1000-fold dilution): 10 mM)
RAW-Dual [1]; [4]
  IRF Lucia reporter activity: 1.28
RAW-Dual [1]; agonist: LPS (TLR4) 0.1 ug/mL
  IRF Lucia reporter activity: 1.1

## CC(C)S(=O)(=O)c1ccc2nccc(Nc3ccc4scnc4c3)c2c1 (library stock concentration (final ~1000-fold dilution): 10 mM)
RAW-Dual [1]; [4]
  IRF Lucia reporter activity: 0.112
RAW-Dual [1]; agonist: LPS (TLR4) 0.1 ug/mL
  IRF Lucia reporter activity: 0.298

## COc1cccc2c1C(=O)c1c(O)c3c(c(O)c1C2=O)CC(O)(C(C)=O)CC3OC1CC(N)C(O)C(C)O1.Cl (centres undefined)
RAW-Dual [2]; [6]
  IRF Lucia reporter activity: 0.0202

## COc1cccc2c1C(=O)c1c(O)c3c(c(O)c1C2=O)CC(O)(C(C)=O)CC3OC1CC(N)C(O)C(C)O1.Cl (centres undefined) (library stock concentration (final ~1000-fold dilution): 10 mM)
RAW-Dual [3]; [4]
  IRF Lucia reporter activity: 0.0103
RAW-Dual [3]; agonist: LPS (TLR4) 0.1 ug/mL
  IRF Lucia reporter activity: 0.0116

## CC(C)(F)CC(NC(c1ccc(-c2ccc(S(C)(=O)=O)cc2)cc1)C(F)(F)F)C(=O)NC1(C#N)CC1 (centres undefined)
RAW-Dual [2]; [5]
  IRF Lucia reporter activity: 1.16

## CC(C)(F)CC(NC(c1ccc(-c2ccc(S(C)(=O)=O)cc2)cc1)C(F)(F)F)C(=O)NC1(C#N)CC1 (centres undefined) (library stock concentration (final ~1000-fold dilution): 10 mM)
RAW-Dual [1]; [4]
  IRF Lucia reporter activity: 1.04
RAW-Dual [1]; agonist: LPS (TLR4) 0.1 ug/mL
  IRF Lucia reporter activity: 1.09
